Screen size: about 310,000 compounds; about 14,000 (4.5%) showed an effect of 50% or more. The effect is printed as a negative number. Some of the results follow.
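Also: peak tail current of the secondary pulse compared with the same well before compound.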

Chain of human ether-à-go-go-related gene (hERG) potassium channel (Q12809 whole entry, looked up): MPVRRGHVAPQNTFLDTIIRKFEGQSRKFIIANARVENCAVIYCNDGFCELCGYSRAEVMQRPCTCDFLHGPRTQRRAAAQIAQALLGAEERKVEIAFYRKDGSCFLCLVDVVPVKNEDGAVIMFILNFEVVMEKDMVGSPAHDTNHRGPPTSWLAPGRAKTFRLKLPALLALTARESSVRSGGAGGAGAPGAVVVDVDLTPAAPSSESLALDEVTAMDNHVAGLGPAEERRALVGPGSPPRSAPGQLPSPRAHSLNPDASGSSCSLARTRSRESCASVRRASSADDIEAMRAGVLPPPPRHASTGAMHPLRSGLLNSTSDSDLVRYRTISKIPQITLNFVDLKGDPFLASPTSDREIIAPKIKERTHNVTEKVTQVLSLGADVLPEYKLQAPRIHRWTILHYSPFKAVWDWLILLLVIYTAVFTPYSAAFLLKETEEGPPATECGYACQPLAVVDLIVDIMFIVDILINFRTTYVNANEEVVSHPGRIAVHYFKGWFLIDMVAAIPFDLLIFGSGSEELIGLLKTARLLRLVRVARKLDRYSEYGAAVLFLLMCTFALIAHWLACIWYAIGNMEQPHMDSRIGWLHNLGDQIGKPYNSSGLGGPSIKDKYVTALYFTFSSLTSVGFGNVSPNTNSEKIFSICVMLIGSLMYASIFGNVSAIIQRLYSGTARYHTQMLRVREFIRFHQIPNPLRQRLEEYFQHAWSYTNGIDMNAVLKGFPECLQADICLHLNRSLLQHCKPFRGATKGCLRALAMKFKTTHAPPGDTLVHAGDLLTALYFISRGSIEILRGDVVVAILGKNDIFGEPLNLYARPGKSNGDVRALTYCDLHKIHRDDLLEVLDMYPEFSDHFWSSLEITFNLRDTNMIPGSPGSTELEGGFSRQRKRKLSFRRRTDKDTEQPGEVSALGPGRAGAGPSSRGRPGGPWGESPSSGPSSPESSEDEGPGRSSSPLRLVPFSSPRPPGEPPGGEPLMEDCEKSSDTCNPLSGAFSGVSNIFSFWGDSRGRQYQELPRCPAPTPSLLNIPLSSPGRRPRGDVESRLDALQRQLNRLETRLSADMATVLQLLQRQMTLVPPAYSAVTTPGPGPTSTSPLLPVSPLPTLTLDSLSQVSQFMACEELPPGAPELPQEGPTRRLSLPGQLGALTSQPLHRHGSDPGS

The assay addresses human ether-à-go-go-related gene (hERG) potassium channel (human, UniProt Q12809). Put plainly: primary screen, population patch clamp on CHO cells stably expressing hERG.
Consider `Nc1c(-c2cccc([N+](=O)[O-])c2)nc2ccccn12`, for which the “hERG current change (%, negative = inhibition) at 10uM” value is -18.5%. Next, `CN1c2ccsc2C(O)=C(C(=S)Nc2ccccc2)S1(=O)=O`: 10.8%. The result for `O=S(=O)(Nc1cccc(C(F)(F)F)c1)c1cccnc1` reads 5.14%; that for `CNC(=O)N(O)C1N(/N=C/c2ccccc2O)C(=S)SC1(C)C` (stereo not shown), 5.49%; that for `O=[N+]([O-])c1cccc(-c2ccc(SCc3ccccn3)nn2)c1`, -6.25%.

As for `CN1CCN(C(N)=NC(=O)c2ccccc2)CC1`, the “hERG current change (%, negative = inhibition) at 10uM” value was 6.76%. The result for `CCOc1cccc(C(=O)N/N=C/c2ccoc2)c1` reads 12.2%; that for `O=c1[nH]c(CN2CCN(c3ccccc3O)CC2)nc2ccccc12`, -9.33%. Next, `Cc1ccc(C)c(N2CCN(CCCc3ccccc3)CC2)c1`: -59.9%; `COc1ccccc1NC(=O)c1cccc(S(=O)(=O)N2CCOCC2)c1`: -6.29%; `C/C(=N\NC(=O)C(C)Sc1ccccc1)c1ccc([N+](=O)[O-])cc1` (stereo not shown): -3.27%. The result for `Cc1ccc(C)c(C(=O)CN2C(=O)NC3(CCc4ccccc43)C2=O)c1` (stereo not shown) reads -24.3%; that for `C=CCOc1ccc(/C=N\NC(N)=S)cc1`, 5.76%; that for `COc1cc(CNC2CCCCCCC2)cc(Cl)c1OCC(N)=O.Cl`, 7.28%. `OC(CN1CCN(Cc2ccccc2)CC1)Cn1c2ccccc2c2ccccc21` (stereo not shown): the “hERG current change (%, negative = inhibition) at 10uM” value is recorded as -67.7%. The result for `C/C(CC(=O)Nc1cccnc1)=N\NC(=O)C(C)Oc1ccc(Cl)cc1Cl` (stereo not shown) reads 14.3%; that for `Cc1ccc(Sc2ccc(/C=C3/C(=O)NN(c4ccccc4)C3=O)o2)cc1`, 12%; that for `O=S(=O)(Nc1ccc(N2CCCCC2)cc1)c1cccc2cccnc12`, 4.19%. Next, `Cc1cc(NC(=O)COC(=O)COc2ccc(C(=O)c3ccccc3)cc2)no1`: 3.95%; `COc1ccc(CC(=O)NNC(=O)c2ccco2)cc1`: 13%; `Cc1cc2nc(C)n(CCCN)c2cc1C.Cl`: -0.0557%.

As for `CC(=O)NC1(c2nnnn2CCOC(=O)Nc2ccc(Cl)cc2)CCCCC1`, the “hERG current change (%, negative = inhibition) at 10uM” value was -16.1%.

For the compound `CC(C)OC(=O)CSc1nnc(SCc2cccc3ccccc23)s1`, the “hERG current change (%, negative = inhibition) at 10uM” value is reported as 7.07%. As to `CC(=O)Cc1c[nH]c2ccccc12`, the “hERG current change (%, negative = inhibition) at 10uM” value stood at 11.7%. Next, `CN1C(=O)/C(=C\c2cc(Br)cs2)c2ccccc21`: 17.1%; `CC(=O)N1CCN=C1SCc1ccc(Cl)cc1`: 0.0159%. The result for `Cc1ccc2sc(N(CCCN(C)C)C(=O)c3ccc(S(=O)(=O)N(C)Cc4ccccc4)cc3)nc2c1C.Cl` reads -20%; that for `CC(C)C1N=C2c3ccccc3N=C(SCC(=O)NCCc3ccc(S(N)(=O)=O)cc3)N2C1=O` (stereo not shown), 8.56%; that for `c1ccc(OCCN2CCN(Cc3nc(-c4ccc5c(c4)OCO5)no3)CC2)cc1`, -51.5%. Take `CCCN(CCC)C(=O)Cc1coc2ccc3ccccc3c12`: the “hERG current change (%, negative = inhibition) at 10uM” value is on record as -9.64%. Next, `N=c1sccn1CC(=O)NC(=O)NC1CCCC1`: 6.93%; `O=C(NCCCn1ccnc1)c1ccccc1Cl`: 17.2%; `c1cncc(-c2nc(N3CCOCC3)c3c4c(sc3n2)CCC4)c1`: 5.82%.

Regarding `CCOc1cc(C#N)c(NC(=O)c2cccnc2)cc1OCC`, the “hERG current change (%, negative = inhibition) at 10uM” value came to 5.85%. The result for `CC1(c2ccccc2Cl)NC(=O)N(CC(=O)NCc2ccco2)C1=O` (stereo not shown) reads 18.9%; that for `CCN(CC)S(=O)(=O)c1ccc(C)c(NC(=O)Cc2ccc(S(=O)(=O)N3CCOCC3)s2)c1`, -25%; that for `Cc1nc2c(-c3ccc(F)cc3)cnn2c2c1CCC2`, -3.76%. `Cc1ccc(OCC(=O)N/N=C\c2ccco2)c(C)c1`: the “hERG current change (%, negative = inhibition) at 10uM” value is -38%.

`COc1cc(OC)c(C2=NOC(C(=O)Nc3ccc4c(c3)OCO4)C2)cc1Cl` (stereo not shown): the “hERG current change (%, negative = inhibition) at 10uM” value stood at 10.7%. Next, `Cc1cccc(NN=C2c3ccccc3-c3ccccc32)c1`: 1.48%; `Cc1ccc(N2C(=O)C(NC(=O)c3ccccc3)(C(F)(F)F)C3=C2CC(C)(C)CC3=O)cc1` (stereo not shown): 7.2%; `Cc1ccc(-c2nc(C)sc2CC(=O)Nc2nnc(C)s2)cc1`: 2.65%. The result for `O=C(NCCC1CCCCN1S(=O)(=O)c1cccs1)C(=O)Nc1ccc(F)cc1` (stereo not shown) reads -6.79%. The result for `O=C(Nc1ccc(Cl)c(Cl)c1)Nn1cnnc1` reads 20.5%. As for `CCS(=O)(=O)N1CCC(C(=O)Oc2ccccc2Cl)CC1`, the “hERG current change (%, negative = inhibition) at 10uM” value is listed as 11.6%.

As for `O=C(CSc1nnc2ccc(-c3ccccn3)nn12)NCC1CCCO1` (stereo not shown), the “hERG current change (%, negative = inhibition) at 10uM” value is given as 8.8%.

In the case of `CC(=O)Nc1cccc(NC(=O)CSc2ccc3nnc(CCNC(=O)c4ccccc4)n3n2)c1`, the “hERG current change (%, negative = inhibition) at 10uM” value is recorded as 4.04%. The result for `CC1Cc2nc(SCC(=O)NC3CCCCC3)n(C)c(=O)c2S1` (stereo not shown) reads -9.7%. Next, `CCCCOC(=O)Nc1ccc(N2CCOCC2)cc1`: -7.64%; `NS(=O)(=O)c1ccc(CNS(=O)(=O)c2cc(C(=O)O)ccc2Cl)cc1`: 15.1%; `Cc1nc(NCC(c2ccccc2)N(C)C)c2c(C)c(C)sc2n1` (stereo not shown): -77.1%. Next, `COc1cc(OC)cc(OCC(O)Cn2cnc(-c3ccccc3)c2)c1` (stereo not shown): -16.5%; `Cc1cc(C)cc(NC(=O)C2CCCN(c3ncccn3)C2)c1` (stereo not shown): -0.329%; `Cc1ccc(NC(=O)c2sc(Cl)nc2-c2ccccc2)cc1C`: 3.94%. As for `O=C1CCCc2c1nn(-c1ccccc1)[n+]2[O-]`, the “hERG current change (%, negative = inhibition) at 10uM” value is recorded as -8.91%. Next, `CCNC(=S)Nn1cnc2ccccc21`: -4.7%. Next, `COC(=O)c1ccc(NC(=O)Nc2ccc3c(c2)nc(C)n3C)cc1`: -10.3%; `COc1ccc(C2C=C(c3ccc(Br)cc3)Nc3nc(N4C(=O)CCC4=O)nn32)cc1` (stereo not shown): -26.5%. The result for `COc1ccc(-c2csc(NC(=O)c3cc(=O)c4ccccc4o3)n2)cc1OC` reads 4.58%. Turning to `Cc1ccc(C(=O)N(CN2CCCC2=O)c2ccccc2)cc1`, the “hERG current change (%, negative = inhibition) at 10uM” value is given as -1.3%. Next, `Cc1c(C(=O)N2CCCCC2)sc(NC(=O)c2ccco2)c1C#N`: 10.2%; `O=C(CN1C(=O)CS/C1=C\c1nc(-c2ccc(Cl)cc2)cs1)Nc1cccnc1Cl`: 24.3%. Next, `O=C1CSC(c2ccccc2[N+](=O)[O-])N1c1ccc(O)cc1` (stereo not shown): 8.38%; `COC(=O)c1ccc(CNC(=O)CCc2c[nH]c3ccccc23)cc1`: 4.48%; `Cc1ccccc1C(=O)NC(=S)NCC1CCCO1` (stereo not shown): 12%. Next, `Cc1ccc(NC(=O)N2CCc3ccccc3C2)cc1`: 1.58%; `CCCc1[nH]nc2c1C(c1ccc(O)cc1OCC)C(C#N)=C(N)O2` (stereo not shown): 4.53%; `COc1ccccc1CNC(=O)CN1CCN(S(=O)(=O)c2cccs2)CC1`: 35.6%.

As for `O=C(CSc1nc2ccccc2o1)N/N=C/c1ccc(C(=O)O)cc1`, the “hERG current change (%, negative = inhibition) at 10uM” value is 30.4%.

As for `CC(=O)NCC(=O)OCC(=O)c1ccccc1`, the “hERG current change (%, negative = inhibition) at 10uM” value is 1.61%. Next, `COc1ccc([C@@H]2CC=C(C(=O)O)CN2S(=O)(=O)c2ccc(Cl)cc2)cc1`: 7.54%. The result for `COCCN(C(=O)c1ccccc1F)c1nc(-c2ccc(OC)cc2)cs1` reads 16.7%; that for `O=C(COc1ccc2oc(-c3ccco3)cc(=O)c2c1)N1CCCCC1`, -14.6%. Next, `CCN(CC)S(=O)(=O)c1cccc(NC(=O)CCNC(=O)NC23CC4CC(CC(C4)C2)C3)c1`: 1.99%. Regarding `C=CCn1c(SCc2c(C)noc2C)nc2ccccc2c1=O`, the “hERG current change (%, negative = inhibition) at 10uM” value is recorded as -36.7%. Next, `CC1(C)CC(=O)C(C=Nc2ccc(Cl)cn2)=C(O)C1`: 11.6%; `CC(C)(C)OC(=O)NCc1n[nH]c(=S)n1C1CC1`: 14.5%.

Regarding `CC(=O)NCCC(=O)Nc1nc(-c2cccs2)c(-c2cccs2)s1`, the “hERG current change (%, negative = inhibition) at 10uM” value is -6.66%. Next, `COc1ccc(S(=O)(=O)NCc2ccccn2)cc1NC(=O)c1ccc(C)cc1`: -16.5%; `O=C(CCC(=O)N1CCSc2ccccc21)NCc1ccc(Cl)cc1`: -33.8%; `COc1ccc2c(c1OC)CN1CCc3cc4c(cc3[C@@H]1[C@@H]2O)OCO4`: 0.379%. The result for `COC(=O)N1CCCc2cc(C)ccc21` reads 9.64%. The result for `O=C(NCc1ccccc1)C1Nc2ccc(OC(F)(F)F)cc2C2C=CCC12` (stereo not shown) reads 3.1%. Consider `COCc1ccc(CN2CCC(N3CCC(C(=O)N4CCCC4)CC3)CC2)o1`, for which the “hERG current change (%, negative = inhibition) at 10uM” value is recorded as 8.86%. `COc1ccc(NC(=O)c2cc(S(=O)(=O)N3CCc4ccccc43)cn2C)cc1OC`: the “hERG current change (%, negative = inhibition) at 10uM” value is -5.54%. `COc1ccc(NC(=O)CCC(=O)c2ccc(Cl)cc2)cn1`: the “hERG current change (%, negative = inhibition) at 10uM” value was -14.9%. Next, `CCOC(=O)Cn1c(S(=O)(=O)Cc2cccc(F)c2)nc(-c2ccccc2)c1-c1ccccc1`: -7.05%; `Cc1cc(C)nc(SCc2nnc(SCC(=O)Nc3nccs3)n2Cc2ccco2)n1`: -25%; `Oc1ccc(Br)cc1C=Nc1ccc2c3c(cccc13)CC2`: 4.05%. In the case of `O=C(NCCSc1ccc(Cl)cc1)c1ccc(CN2CCOCC2)cc1`, the “hERG current change (%, negative = inhibition) at 10uM” value is -58.5%. Regarding `COc1cc(S(=O)(=O)N(Cc2ccccc2)CC2CCCO2)ccc1-n1cnnn1` (stereo not shown), the “hERG current change (%, negative = inhibition) at 10uM” value is -23.2%.

For the origin of these results see PMC4336329 (PLoS ONE, 2015).
